# In the supplement of paper PMC4206461:
# Some of the results follow.
# Tested on: Pseudomonas aeruginosa PA14 dppA1-A5 penta deletion mutant
# Assay: respiration area under curve with compound as sole nitrogen source, 24 h (OmniLog AUC (arbitrary units)); higher = more respiration / better utilisation as nitrogen source, active = 2000 or more; extreme values may be limits of the assay
# Settings: plate: PM6
# Protocol: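 Biolog Phenotype MicroArray plates PM6-PM8: each di/tripeptide is the sole nitrogen source. Tetrazolium reduction was read in the OmniLog for 24 h at 37°C and summarised as area under the respiration curve (arbitrary units). Values below 2000 count as no respiration.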
row,SMILES,respiration area under curve
1,N[C@@H](CCC(=O)O)C(=O)N[C@@H](CC(=O)O)C(=O)O,inactive: 0
2,C[C@H](N)C(=O)N[C@H](C(=O)O)[C@@H](C)O,active: 3380
3,NC(=O)C[C@H](N)C(=O)N[C@@H](CCC(=O)O)C(=O)O,active: 2120
4,NC(=O)CC[C@H](NC(=O)[C@@H](N)CCC(N)=O)C(=O)O,active: 5790
5,C[C@H](N)C(=O)N[C@@H](CCCN=C(N)N)C(=O)O,active: 10200
6,CC(C)[C@H](NC(=O)[C@@H](N)CC(N)=O)C(=O)O,active: 5760
7,NCC(=O)NCC(=O)O,inactive: 293
8,C[C@H](N)C(=O)N[C@@H](CCC(=O)O)C(=O)O,active: 4310
9,N[C@@H](CC(=O)O)C(=O)N[C@@H](Cc1c[nH]c2ccccc12)C(=O)O,active: 2450
10,N[C@@H](CCC(=O)O)C(=O)N[C@@H](Cc1c[nH]c2ccccc12)C(=O)O,active: 2350
11,CSCC[C@H](NC(=O)CN)C(=O)O,inactive: 0
12,N[C@@H](CCC(=O)O)C(=O)N[C@@H](Cc1ccc(O)cc1)C(=O)O,inactive: 233
13,NC(N)=NCCC[C@H](N)C(=O)N[C@@H](Cc1ccccc1)C(=O)O,active: 9720
14,CC(C)C[C@H](N)C(=O)N[C@@H](CCCN=C(N)N)C(=O)O,active: 10300
15,NC(=O)CC[C@H](N)C(=O)NCC(=O)O,active: 3260
16,NC(N)=NCCC[C@H](N)C(=O)N[C@@H](CC(=O)O)C(=O)O,active: 9050

# Same assay, conditions: plate: PM7
row,SMILES,respiration area under curve
1,CC(C)[C@H](N)C(=O)N[C@@H](Cc1ccc(O)cc1)C(=O)O,active: 6310
2,C[C@@H](O)[C@H](N)C(=O)N[C@@H](CCCN=C(N)N)C(=O)O,active: 15100
3,N[C@@H](Cc1ccccc1)C(=O)N[C@@H](CO)C(=O)O,active: 3210
4,C[C@H](NC(=O)[C@@H](N)Cc1ccc(O)cc1)C(=O)O,active: 9760
5,CSCC[C@H](N)C(=O)N[C@@H](CCC(N)=O)C(=O)O,active: 4530
6,CC(C)C[C@H](NC(=O)[C@@H](N)Cc1ccc(O)cc1)C(=O)O,active: 6690
7,CSCC[C@H](N)C(=O)N[C@@H](Cc1ccccc1)C(=O)O,inactive: 417
8,CC[C@H](C)[C@H](NC(=O)[C@@H](N)C(C)C)C(=O)O,active: 4330
9,O=C(O)[C@@H]1CCCN1C(=O)[C@@H]1CCCN1,inactive: 173
10,N[C@@H](Cc1c[nH]c2ccccc12)C(=O)NCC(=O)O,inactive: 675
11,CC(C)[C@H](N)C(=O)N[C@@H](CC(N)=O)C(=O)O,active: 7070
12,CC(C)C[C@H](NC(=O)[C@@H](N)CO)C(=O)O,active: 3380
13,N[C@@H](Cc1ccc(O)cc1)C(=O)N[C@@H](CCC(=O)O)C(=O)O,inactive: 757

# Same assay, conditions: plate: PM8
row,SMILES,respiration area under curve
1,CSCC[C@H](NC(=O)[C@H](C)N)C(=O)O,inactive: 1870
2,CC(C)C[C@H](N)C(=O)N[C@H](CC(C)C)C(=O)O,inactive: 1.29
3,CCC(C)C(N)C(=O)NC(CC(N)=O)C(=O)O (stereo not given),inactive: 809
4,CC(C)C[C@@H](N)C(=O)N[C@@H](Cc1ccc(O)cc1)C(=O)O,inactive: 39
5,CSCCC(NC(=O)C(N)C(C)C)C(=O)O (stereo not given),inactive: 871
6,CC(C)[C@H](N)C(=O)N[C@@H](CCC(=O)O)C(=O)O,inactive: 0
7,N[C@@H](CO)C(=O)N[C@@H](CC(=O)O)C(=O)O,inactive: 0
8,CC(C)[C@H](NC(=O)[C@@H](N)Cc1ccccc1)C(=O)O,active: 4780
9,NC(=O)CC[C@H](N)C(=O)N[C@@H](CCC(=O)O)C(=O)O,active: 2390
10,CC(C)[C@H](NC(=O)[C@H](C)N)C(=O)O,inactive: 1270
11,CC(C)[C@H](NC(=O)[C@@H](N)Cc1c[nH]c2ccccc12)C(=O)O,inactive: 357
